Results reported in publication PMC4336329 (PLoS ONE, 2015).
Hit rate of the full screen: of about 310,000 compounds, about 2,200 (0.71%) showed an effect of 50% or more. Effects have a minus sign here. Some of the results follow.

Each molecule was assayed against human ether-à-go-go-related gene (hERG) potassium channel (human, UniProt Q12809) (assay: primary screen, population patch clamp on CHO cells stably expressing hERG).
human ether-à-go-go-related gene (hERG) potassium channel, sequence (Q12809 whole entry, looked up): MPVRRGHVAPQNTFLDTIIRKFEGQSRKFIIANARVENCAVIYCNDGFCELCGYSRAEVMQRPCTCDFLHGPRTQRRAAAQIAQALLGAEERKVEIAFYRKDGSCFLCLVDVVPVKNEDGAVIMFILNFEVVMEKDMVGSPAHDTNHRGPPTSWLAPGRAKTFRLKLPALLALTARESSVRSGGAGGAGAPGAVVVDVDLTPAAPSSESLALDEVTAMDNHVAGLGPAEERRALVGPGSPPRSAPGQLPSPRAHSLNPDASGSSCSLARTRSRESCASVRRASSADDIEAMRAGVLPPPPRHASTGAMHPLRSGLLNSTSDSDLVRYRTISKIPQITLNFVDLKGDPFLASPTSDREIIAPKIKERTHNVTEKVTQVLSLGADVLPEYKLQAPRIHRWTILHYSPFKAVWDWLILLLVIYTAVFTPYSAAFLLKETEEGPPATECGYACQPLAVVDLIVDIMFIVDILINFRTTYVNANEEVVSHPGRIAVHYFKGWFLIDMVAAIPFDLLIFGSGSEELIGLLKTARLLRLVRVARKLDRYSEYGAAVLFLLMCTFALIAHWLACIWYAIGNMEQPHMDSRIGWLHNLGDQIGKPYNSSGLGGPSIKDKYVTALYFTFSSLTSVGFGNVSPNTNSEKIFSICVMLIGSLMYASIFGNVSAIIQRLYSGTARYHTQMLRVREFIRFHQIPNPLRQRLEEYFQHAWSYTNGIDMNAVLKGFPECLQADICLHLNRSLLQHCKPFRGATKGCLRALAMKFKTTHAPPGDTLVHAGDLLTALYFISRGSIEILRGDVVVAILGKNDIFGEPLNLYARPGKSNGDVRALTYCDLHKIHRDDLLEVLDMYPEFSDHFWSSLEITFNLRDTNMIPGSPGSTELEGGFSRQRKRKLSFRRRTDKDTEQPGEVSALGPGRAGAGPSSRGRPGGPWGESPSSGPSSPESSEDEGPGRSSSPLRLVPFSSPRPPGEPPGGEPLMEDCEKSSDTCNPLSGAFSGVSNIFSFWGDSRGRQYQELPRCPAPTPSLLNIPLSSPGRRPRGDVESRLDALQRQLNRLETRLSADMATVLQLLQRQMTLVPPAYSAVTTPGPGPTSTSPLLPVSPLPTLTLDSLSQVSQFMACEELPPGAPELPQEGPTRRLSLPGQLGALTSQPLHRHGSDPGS

SMILES	hERG current change (%, negative = inhibition) at 1uM [%]
CCOC(=O)C1CCCN(c2c(Nc3ccc(C)c(C)c3)c(=O)c2=O)C1 (stereo not shown)	-6.7
CN(CC(=O)Nc1cccc(F)c1)C(=O)C1CCN(S(=O)(=O)c2ccc3c(c2)OCCO3)CC1	-3.13
CCCCNc1c(N)n(CCC)c(=O)[nH]c1=O	18.3
CCOc1nc(NCCc2ccc(OC)c(OC)c2)nc(N2CCN(c3ccc(OC)cc3)CC2)n1	3.13
COc1cc(OC)cc(-n2nnnc2SCC(=O)N2CCCc3ccccc32)c1	1.61
Cc1ccc2nc(NC(=O)C3CCN(S(=O)(=O)c4ccc5c(c4)oc(=O)n5C)CC3)sc2c1	7.18
COC(=O)C1CCN(C(=O)COC(=O)c2cc(-c3ccccc3)nc3ccc(OC)cc23)CC1	4.18
CCOC(=O)N1CCN(c2c(NCc3ccc(Cl)cc3)c(=O)c2=O)CC1	12.7
COc1ccc(CCNC(=O)CSc2nc3cc(Cl)ccc3o2)cc1OC	3.39
CN1CCN(c2nc(-c3ccccc3)ncc2S(=O)(=O)c2ccccc2)CC1	-1.14
O=C(CSCc1ccccc1Br)NC1CC1	11.8
S=C(Nc1ccccc1)Nc1ccc2cn[nH]c2c1	4.09
CC(=O)N1N=C(c2ccc(C)cc2)CC1c1ccco1 (stereo not shown)	15
COc1ccc(-c2csc(NC(=O)CN3C(=O)CCC3=O)n2)cc1OC	18.6
CCN(CC)c1nc2ccccc2c(N)c1-c1ccccc1.O=C(O)C(=O)O	-53.9
COc1ccc(CCNC(=O)CN(c2cc([N+](=O)[O-])ccc2OC)S(C)(=O)=O)cc1OC	8.56
Cc1ccc(Cl)cc1N1CCN(C(=O)C2CCC(=O)N(C3CCCCCC3)C2)CC1 (stereo not shown)	6.13
Nc1nc2ccccc2n1CCOc1ccc(F)cc1	-18.1
CC(C)COC(=O)Nc1nnc(Cc2ccccc2)s1	9.49
Cc1ccc(C(=O)O)cc1NC(=S)NC(=O)c1ccc([N+](=O)[O-])cc1Cl	17.1
COc1ccc(CNC(=O)C(=O)c2cn(CC(=O)N3CCOCC3)c3ccccc23)cc1	13.7
CCOC(=O)C1CCCN(C(=O)c2cc3c(OC)c(OC)c(OC)cc3[nH]2)C1 (stereo not shown)	9.42
Cc1ccccc1CS(=O)(=O)c1cn(CC(=O)N2CCOCC2)c2ccccc12	5.73
CC(C)OCCCNC(=O)c1ccc(CN2CCc3ccccc3C2)cc1	8.03
COc1ccccc1N1CCN(C(=O)c2ccc(-c3ccccc3)cc2)CC1	4.44
Cc1cc(C)cc(C(=O)NC(CC(N)=O)c2ccc(NC3CCCC3)c([N+](=O)[O-])c2)c1 (stereo not shown)	16
CCc1c(C)nc(Nc2nc(C)c3ccc(OC)cc3n2)[nH]c1=O	15.4
COC(=O)Cc1cc(=O)n2[nH]c(SC)nc2n1	12.7

SMILES	hERG current change (%, negative = inhibition) at 1uM [%]
CCc1ccc(S(=O)(=O)N2CCN(C(=O)c3cccnc3)CC2)cc1	9.81
Cc1cc(C)cc(N(CC(=O)NCc2cccnc2)S(C)(=O)=O)c1	8.28
O=C(O)c1ccccc1Cc1nc2cc(Cl)ccc2c(=O)[nH]1	11.3
CCOC(=O)C1CCN(C(=O)COC(=O)c2ccc(Br)o2)CC1	5.96
Oc1cccc2ccc(/C=C/c3c(F)cccc3Cl)nc12	19.7
CCn1c(=O)c2cc(C(=O)NCC(OC)OC)sc2c2ccccc21	10.5
O=C(CSc1nc2ccc([N+](=O)[O-])cc2[nH]1)NCCc1ccccc1	10.5
Cc1ccc(C(=O)NCc2nnc3c(C(F)(F)F)cc(Cl)cn23)o1	11.9
CC(C)(C)OC(=O)NCCCCCNC(=O)c1[nH]cnc1C(=O)N[C@@H](Cc1ccccc1)C(=O)OCc1ccccc1	8.8
COc1ccc(OC)c(NC(=O)c2ccc(Cl)cc2)c1	9.06
O=C1CC(NS(=O)(=O)c2cccnc2)CN1c1ccccc1 (stereo not shown)	3.59
O=C(CCNC(=O)Cn1ccc2ccccc2c1=O)NCCCN1CCN(c2ccc(F)cc2)CC1	9.51
Cc1cc(C)c(NN=c2c(=O)c3ccccc3c2=O)c(C)c1	-4.07
C=CCn1c(SCC(=O)Nc2c(C)n(C)n(-c3ccccc3)c2=O)nc2sc(C)c(C)c2c1=O	-21.6
CC(=O)CC(=O)Nc1ncccn1	14.5
COCCCNC(=O)/C(C#N)=C/c1c(N2CCN(C)CC2)nc2ccccn2c1=O	25.1
CCOc1ccccc1/C=N/NC(=O)c1cccc(S(=O)(=O)N(CC)CC)c1	-2.02
CC(C)Sc1nnc(Nc2ccccc2)s1	3.42
C=CCOC(=O)C1=C(C)NC(=O)NC1/C=C/c1ccccc1 (stereo not shown)	8.57
c1ccc(Nc2ncnc3[nH]ncc23)cc1	11.5
NS(=O)(=O)c1ccc(NC(=O)c2cc(-c3cc(Cl)ccc3O)n[nH]2)cc1	14.3
Cc1cc(C)c(S(=O)(=O)N2CCOC2CNC(=O)C(=O)NCc2ccccn2)c(C)c1 (stereo not shown)	13
Cc1ccc(CSC2=Nc3ccccc3C3=NC(CCC(=O)NCc4ccco4)C(=O)N23)cc1 (stereo not shown)	-1.29
C/C=C/c1ccc(OCCCNC(C)CC)c(OC)c1.O=C(O)C(=O)O (stereo not shown)	4.69
CCC(C(=O)N1CCN(Cc2ccc3c(c2)OCO3)CC1)n1c(=O)[nH]c2ccccc2c1=O (stereo not shown)	-8.55
Cc1ccc2nc(SCC(=O)N3CCOCC3)[nH]c2c1	1.05
Cc1csc(SCCn2c(N3CCOCC3)nc3c2c(=O)[nH]c(=O)n3C)n1	10.8
